Measurements reported in PubChem BioAssay AID894 (National Center for Advancing Translational Sciences (NCATS), 2007).
The whole screen tested about 150,000 compounds, of which about 6,500 (4.3%) were called active. This list was built around the results that the source calls inconclusive (neither active nor inactive); the mix of calls is not that of the screen. Calls follow the shape of the dose curve; as a rule, active = well fitted inhibition curve with a large enough effect (not every such curve was filed as active); inconclusive = small, poorly fitted or top-dose-only effect, or another doubt; inactive = no such curve, though single readings can be large or run the other way. No potency is given beside an inconclusive call; the fits are too rough.

Target: 15-hydroxyprostaglandin dehydrogenase [NAD(+)] (Homo sapiens) (UniProt P15428)
Test: qHTS Assay for Inhibitors of HPGD (15-Hydroxyprostaglandin Dehydrogenase)
Conditions: purified HPGD, NADH fluorescence kinetic, PGE2 substrate; activity change, negative = inhibition: stronger effect = lower value
Method in brief: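 NADH formation kinetics: reaction with 30 uM PGE2 and 1 mM NAD+ (final), 20 nM enzyme, Tris-HCl pH 8 with Tween 20, after 15 min compound preincubation at room temperature. Fluorescence change, last versus first of five reads.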
% is scaled to controls: 0 for no effect and ±100 for the full control effect; potency is read from the fitted curve at half-maximal effect; tags tell the direction and shape of the fitted curve.

Chain of UniProt P15428 (P15428 whole entry, looked up): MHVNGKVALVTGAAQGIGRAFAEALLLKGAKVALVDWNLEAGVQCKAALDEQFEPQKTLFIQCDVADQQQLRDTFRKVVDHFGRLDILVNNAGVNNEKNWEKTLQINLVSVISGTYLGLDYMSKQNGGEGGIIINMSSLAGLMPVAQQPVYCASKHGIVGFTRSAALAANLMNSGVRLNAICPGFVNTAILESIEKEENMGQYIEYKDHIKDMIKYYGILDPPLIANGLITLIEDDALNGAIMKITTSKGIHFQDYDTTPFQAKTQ

Structure (SMILES) | activity change, negative = inhibition | Potency
COC(=O)c1cc(NC2c3ccccc3C(=O)N2CCN2CCOCC2)cc(C(=O)OC)c1 (stereo not given) | inactive: -12.4% | –
N[C@@H](CO)C(=O)NNCc1ccc(O)c(O)c1O | inactive: -2.23% | –
O=C(Oc1cc2oc(=O)c3c(c2cc1Cl)CCCC3)c1ccco1 | – | inconclusive [inhibitor, partial curve]
COc1ccc(-c2nnc(SCc3cc(C)ccc3C)n2N)cc1 | – | inconclusive [inhibitor, partial curve]
Cc1nc(-c2cccc(S(=O)(=O)N3CCOCC3)c2)cs1 | – | active: 25.1 µM
CC(C)COc1ccc(C(=O)Nc2ccc(NC(=O)c3ccco3)c(Cl)c2)cc1 | – | inconclusive [inhibitor, partial curve]
COc1ccc(-c2nn(CCC(=O)O)cc2/C=C2\SC(N)=NC2=O)cc1OC | – | active: 3.16 µM
O=C(NCCn1ccc2ccccc21)c1ccc(S(=O)(=O)N2CCCCC2)cc1 | – | inconclusive [inhibitor, partial curve, poor fit]
CCS(=O)(=O)Nc1ccc(NC(C)=O)cc1 | – | active: 25.1 µM
Cc1ccc(NC(=O)c2cc(-c3ccco3)on2)cc1 | – | inconclusive [inhibitor, partial curve]
Cc1nn(-c2ccccc2)c(N)c1Sc1cccc([N+](=O)[O-])c1 | – | active: 25.1 µM
COc1ccc(/C=C/c2nnc(NC(=O)CSc3ccc(Cl)cc3)s2)cc1 | – | inconclusive [inhibitor, partial curve]
COC(=O)c1ccsc1NC(=O)CSc1nnnn1Cc1ccccc1 | inactive: -7.52% | –
Cc1cc(SCC(=O)OCC(=O)NC(C)c2ccccc2)c(C)cc1Br (stereo not given) | inactive: -6.2% | –
CN=C(NC#N)NCCSC[C@H]1N=CN=C1C | inactive: -5.29% | –
CCOc1oc(-c2ccc(OC)cc2)nc1C(F)(F)F | – | inconclusive [inhibitor, single point]
O=c1/c(=C/c2ccco2)sc2n1CN(c1ccccc1)CN=2 | inactive: -17.6% | –
Cn1c(=O)[nH]c(=O)c2c1nc(Br)n2CCCSc1nc2ccccc2o1 | – | active: 22.4 µM
O=C(CC1CC2CCC1C2)NCc1cccs1 (stereo not given) | – | active: 15.8 µM
CCn1c2ccccc2c2cc(/C=N/NC(=O)c3ccccc3)ccc21 | – | inconclusive [inhibitor, partial curve]
COc1ccc(C(=O)c2cnc(/N=C/N(C)C)s2)cc1 | – | inconclusive [inhibitor, partial curve]
O=C(CSc1nc2ccccc2s1)Nc1cc(S(=O)(=O)N2CCOCC2)ccc1O | – | active: 12.6 µM
CCCCNS(=O)(=O)c1ccc(OC)c(Cl)c1Cl | inactive: -17.2% | –
COc1ccccc1C(=O)NC(=S)NNC(=O)c1sc2ccccc2c1Cl | – | active: 31.6 µM
CCC(Sc1nnc2c3ccccc3n(CC)c2n1)C(=O)Nc1sc2c(c1C#N)CCCC2 (stereo not given) | inactive: -28.5% | –

Structure (SMILES) | activity change, negative = inhibition | Potency
Cc1cc2oc(=O)cc(CN3CCN(Cc4ccc5c(c4)OCO5)CC3)c2cc1C | inactive: -18.6% | –
COc1cc(C(=O)OCn2nnc3ccccc3c2=O)cc(OC)c1OC | – | inconclusive [inhibitor, single point]
Clc1ccc2nnnc(-c3ccccc3)c2c1 | inactive: -0.147% | –
O=C1NC(=O)/C(=C\c2ccc(Oc3ccc([N+](=O)[O-])cn3)cc2)S1 | – | active: 12.6 µM
c1ccc(Nc2nc3ccccc3[nH]2)nc1 | – | active: 31.6 µM
Oc1cccc2c(NC(=S)Nc3ccc(OC(F)F)cc3)cccc12 | – | inconclusive [inhibitor, partial curve]
CC1CCN(c2c(NCC3CCC(C(=O)NCCc4ccccc4)CC3)c(=O)c2=O)CC1 (stereo not given) | – | active: 6.31 µM
CC(=O)c1cc2c(cc1NC(=O)c1ccc(C)cc1)OCO2 | – | inconclusive [inhibitor, partial curve]
CCOC(=O)c1sc(NC(=O)CSc2nnc(-c3ccco3)n2CC)c(C(=O)OCC)c1C | – | inconclusive [inhibitor, single point]
COc1ccc(/C=C2\OC(=O)c3c(OC)cccc32)cc1OC | – | inconclusive [inhibitor, partial curve]
Cc1noc(C)c1CN1C(=O)NC(Cc2ccccc2)(Cc2ccccc2)C1=O | inactive: -1.8% | –
C=CCNC(=O)c1c(-c2c(F)cccc2Cl)noc1C | inactive: -2.78% | –
CCOC(=O)CCc1c(C)c2ccc(OCC(=O)N(CC)CC)c(C)c2oc1=O | – | inconclusive [inhibitor, partial curve]
CS(=O)(=O)Nc1ccc(C(=O)NCCc2ccccc2)cc1 | inactive: -20.9% | –
C/C(Cl)=C\CSc1nnc2n(N)c(=O)c3ccccc3n12 | inactive: -18.4% | –
O=C(Nc1cccc(C(F)(F)F)c1)c1cc(S(=O)(=O)N2CCCCC2)ccc1N1CCOCC1 | – | inconclusive [inhibitor, single point]
NC(=O)c1ccccc1NS(=O)(=O)c1ccc2c(c1)OCCO2 | – | inconclusive [inhibitor, partial curve]
COc1ccc(C(=O)/C=C/Nc2ccc(S(=O)(=O)Nc3nc(C)cc(C)n3)cc2)cc1OC | – | inconclusive [inhibitor, partial curve]
C[C@@H]1NC(=O)c2cc([N+](=O)[O-])cc(I)c2NCC[C@@H](C(N)=O)NC(=O)[C@H](CC(N)=O)NC1=O | inactive: -10.9% | –
Cc1ccc(CNC(=O)COc2ccc3c(c2)CCC3)cc1 | – | inconclusive [inhibitor, partial curve]
COc1cc(NC(=O)C2CCCN(c3ncccn3)C2)cc(OC)c1 (stereo not given) | – | inconclusive [inhibitor, partial curve]
Cc1cc(C)n(-c2nc(NCc3cccnc3)c3c4c(sc3n2)COC(C)(C)C4)n1 | – | inconclusive [inhibitor, partial curve]
CO[C@]12C(COC(N)=O)C3=C(C(=O)C(C)=C(N)C3=O)N1CC1NC12 (stereo not given in full) | inactive: -10.8% | –
CCOC(=O)C1CCN(c2ccc(C(=O)O)cc2[N+](=O)[O-])CC1 | inactive: -3.84% | –
Cc1ccc2cc3cc(C(=O)NCCC(C)C)oc3nc2c1 | – | inconclusive [inhibitor, partial curve]

Structure (SMILES) | activity change, negative = inhibition | Potency
Nc1c(C(=O)NCC2CCCO2)sc(=S)n1-c1ccccc1 (stereo not given) | – | active: 25.1 µM
CC(=O)Nc1nc(-c2ccc(Br)s2)cs1 | inactive: -4.72% | –
O=C(Nc1cccc(Cl)c1)N(Cc1nc2ccccc2c(=O)[nH]1)Cc1cccs1 | inactive: -2.93% | –
N#Cc1c2c(nc(N)c1-c1ccccc1)CCCCC2 | – | inconclusive [inhibitor, partial curve]
CCCn1c(-c2ccc(F)cc2)nc2c(NCCCCN3CCCC3)nc(C)nc21 | – | inconclusive [inhibitor, partial curve]
Cc1[nH]c(=O)[nH]c(=O)c1CSc1nnc(CCCCCNC(=O)OC(C)(C)C)o1 | – | active: 25.1 µM
C=CCOC(=O)Nc1c(C(=O)OC)[nH]c2ccc(Cl)cc12 | – | inconclusive [inhibitor, partial curve]
CCOc1cccc(-c2nnc3sc(COc4ccccc4)nn23)c1 | – | inconclusive [inhibitor, partial curve]
Cc1ccc(O)c(C(=O)c2cnc3c(c2)COc2ccc(C)cc2-3)c1 | – | active: 17.8 µM
c1ccc(N2CCN(c3nc(-c4cccs4)nc4ccccc34)CC2)cc1 | – | inconclusive [inhibitor, single point]
O=[N+]([O-])c1ccccc1NCCNS(=O)(=O)c1ccc(Cl)cc1 | inactive: -18.4% | –
Cc1ccc(-c2cc(-c3ccccc3)c(C#N)c(N)n2)o1 | – | inconclusive [inhibitor, partial curve]
CCCCN(CCCC)S(=O)(=O)c1ccc(NC(=O)CN2CCOCC2)cc1 | inactive: -16.5% | –
CCc1cc(C(=O)COc2ccccc2F)c(O)cc1O | – | active: 31.6 µM
CC(=O)/C=C(\C)Nc1ccc(-c2cnc(-c3ccccc3)o2)cc1 | – | inconclusive [inhibitor, partial curve]
CCOC(=O)c1[nH]c2ccc(Br)cc2c1NC(=O)CCN1CCC(C)CC1 | inactive: -14.9% | –
C=CCn1c(-c2cc(Cl)ccc2OC)n[nH]c1=S | – | inconclusive [inhibitor, partial curve]
S=c1[nH]nc(Cc2cccc3ccccc23)o1 | – | inconclusive [inhibitor, partial curve]
CCOC(=O)C1(C)/C(=N/Nc2ccc(Cl)cc2)C(=O)C(=O)N1c1ccccc1 (stereo not given) | – | inconclusive [inhibitor, single point]
COc1ccc(OC)c(N(CC(=O)Nc2ccc3c(c2)OCO3)S(=O)(=O)c2ccccc2)c1 | – | active: 31.6 µM
CNC(=S)N/N=C/c1ccc(OCc2ccccc2)c(Br)c1 | – | inconclusive [inhibitor, partial curve]
COc1ccc(Cl)cc1NC(=O)COC(=O)c1cc(NS(=O)(=O)c2cccs2)ccc1O | inactive: -9.28% | –
O=C(COc1ccc2ccc(=O)oc2c1)Nc1ccc(N2CCOCC2)cc1 | – | inconclusive [inhibitor, single point]
Cn1c(=O)c2c(n3cnnc13)-c1ccccc1CC21CCCC1 | inactive: -11.3% | –
O=S(=O)(c1ccccc1)N1c2cc(Cl)ccc2Oc2nc3ccccc3nc21 | – | inconclusive [inhibitor, partial curve]
